# Measured values taken from the supplement of paper PMC8728848.
# The other results are listed elsewhere or left out.
# B1: laminarinase (Bacillus halodurans), Q9KBL8 (protein)
# chain: EETIELEGEVIPARLLSTKVKALNYDDYHNVLIDRCVEGGESIRGLGDGSWIAFHDINLEQPTNLLTVRAANENKQAVLEIRADRVDGPLVSQSVIPPTGGLQAWTTVTAQVNGETSEIRDLYLVFKGEFQLSWFSFS
# Columns and labels:
# Assay in all cases: glycan array binding signal (z-score within array); higher = stronger binding
# Settings in all cases: glycan notation: IUPAC condensed, linker removed
# [1] = target: Glc(b1-2)Glc(b1-2)Glc(b1-2)Glc(b1-2)Glc(b1-2)Glc(b1-2)Glc(b1-2)Glc(b1-2)Glc(b1-2)Glc(b1-2)Glc
# In short: (§1)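 The binding signal is a Z-score computed within each array. Data were drawn from 3228 arrays in the Consortium for Functional Glycomics database, restricted to those with a known protein sequence. Scores were averaged over arrays of the same protein sequence at different concentrations or buffers, and over linkers, and negative values can be taken as non-binding.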
# [2] = target: Glc(b1-2)Glc(b1-2)Glc(b1-2)Glc(b1-2)Glc(b1-2)Glc(b1-2)Glc(b1-2)Glc(b1-2)Glc(b1-2)Glc(b1-2)Glc(b1-2)Glc
# In short: as §1
# [3] = target: Glc(b1-2)Glc(b1-2)Glc(b1-2)Glc(b1-2)Glc(b1-2)Glc(b1-2)Glc(b1-2)Glc(b1-2)Glc(b1-2)Glc(b1-2)Glc(b1-2)Glc(b1-2)Glc
# In short: as §1
# [4] = target: Glc(b1-3)Glc
# In short: as §1
# [5] = target: Glc(b1-3)Glc(b1-3)Glc
# In short: as §1
# [6] = target: Glc(b1-3)Glc(b1-3)Glc(b1-3)Glc
# In short: as §1
# [7] = target: Glc(b1-3)Glc(b1-3)Glc(b1-3)Glc(b1-3)Glc
# In short: as §1
# [8] = target: Glc(b1-3)Glc(b1-3)Glc(b1-3)Glc(b1-3)Glc(b1-3)Glc
# In short: as §1
# [9] = target: Glc(b1-3)Glc(b1-3)Glc(b1-3)Glc(b1-3)Glc(b1-3)Glc(b1-3)Glc
# In short: as §1
# [10] = target: Glc(b1-3)Glc(b1-3)Glc(b1-3)Glc(b1-3)Glc(b1-3)Glc(b1-3)Glc(b1-3)Glc
# In short: as §1
# [11] = target: Glc(b1-3)Glc(b1-3)Glc(b1-3)Glc(b1-3)Glc(b1-3)Glc(b1-3)Glc(b1-3)Glc(b1-3)Glc
# In short: as §1
# [12] = target: Glc(b1-3)Glc(b1-3)Glc(b1-3)Glc(b1-3)Glc(b1-3)Glc(b1-3)Glc(b1-3)Glc(b1-3)Glc(b1-3)Glc
# In short: as §1
# [13] = target: Glc(b1-3)Glc(b1-3)Glc(b1-3)Glc(b1-3)Glc(b1-3)Glc(b1-3)Glc(b1-3)Glc(b1-3)Glc(b1-3)Glc(b1-3)Glc
# In short: as §1
# [14] = target: Glc(b1-3)Glc(b1-3)Glc(b1-3)Glc(b1-3)Glc(b1-3)Glc(b1-3)Glc(b1-3)Glc(b1-3)Glc(b1-3)Glc(b1-3)Glc(b1-3)Glc
# In short: as §1
# [15] = target: Glc(b1-3)Glc(b1-3)Glc(b1-3)Glc(b1-3)Glc(b1-3)Glc(b1-3)Glc(b1-3)Glc(b1-3)Glc(b1-3)Glc(b1-3)Glc(b1-3)Glc(b1-3)Glc
# In short: as §1
# [16] = target: Glc(b1-3)Glc(b1-3)Glc(b1-3)Glc(b1-3)Glc(b1-3)Glc(b1-3)Glc(b1-3)[Glc(b1-6)]Glc(b1-3)Glc
# In short: as §1
# [17] = target: Glc(b1-3)Glc(b1-3)Glc(b1-3)Glc(b1-3)Glc(b1-3)Glc(b1-3)[Glc(b1-6)]Glc(b1-3)Glc(b1-3)Glc
# In short: as §1
# [18] = target: Glc(b1-3)Glc(b1-3)Glc(b1-3)Glc(b1-3)[Glc(b1-6)]Glc(b1-3)Glc(b1-3)Glc(b1-3)Glc(b1-3)Glc
# In short: as §1
# [19] = target: Glc(b1-3)Glc(b1-3)Glc(b1-3)[Glc(b1-6)]Glc(b1-3)Glc(b1-3)Glc(b1-3)Glc(b1-3)[Glc(b1-6)]Glc(b1-3)Glc
# In short: as §1
# [20] = target: Glc(b1-3)Glc(b1-3)[Glc(b1-6)]Glc(b1-3)Glc(b1-3)Glc(b1-3)Glc(b1-3)Glc(b1-3)Glc(b1-3)Glc
# In short: as §1
# [21] = target: Glc(b1-3)Glc(b1-4)Glc
# In short: as §1
# [22] = target: Glc(b1-3)Glc(b1-4)Glc(b1-4)Glc
# In short: as §1
# [23] = target: Glc(b1-3)Glc(b1-4)Glc(b1-6)Glc(b1-4)Glc
# In short: as §1
# [24] = target: Glc(b1-3)[Glc(b1-6)]Glc(a1-3)Glc(b1-3)[Glc(b1-6)]Glc
# In short: as §1
# [25] = target: Glc(b1-3)[Glc(b1-6)]Glc(b1-3)Glc(b1-3)Glc(b1-3)Glc(b1-3)Glc(b1-3)Glc(b1-3)Glc
# In short: as §1
# [26] = target: Glc(b1-4)Glc
# In short: as §1
# [27] = target: Glc(b1-4)Glc(b1-3)Glc
# In short: as §1
# [28] = target: Glc(b1-4)Glc(b1-3)Glc(b1-4)Glc
# In short: as §1
# [29] = target: Glc(b1-4)Glc(b1-4)Glc
# In short: as §1
binder,measurement,setting,value
B1,glycan array binding signal (z-score),[1],1.91
same,glycan array binding signal (z-score),[2],1.37
same,glycan array binding signal (z-score),[3],1.96
same,glycan array binding signal (z-score),[4],-0.627
same,glycan array binding signal (z-score),[5],-0.536
same,glycan array binding signal (z-score),[6],0.421
same,glycan array binding signal (z-score),[7],0.748
same,glycan array binding signal (z-score),[8],1.23
same,glycan array binding signal (z-score),[9],1.12
same,glycan array binding signal (z-score),[10],2.39
same,glycan array binding signal (z-score),[11],1.82
same,glycan array binding signal (z-score),[12],2.13
same,glycan array binding signal (z-score),[13],2.35
same,glycan array binding signal (z-score),[14],2.38
same,glycan array binding signal (z-score),[15],2.46
same,glycan array binding signal (z-score),[16],2.1
same,glycan array binding signal (z-score),[17],1.45
same,glycan array binding signal (z-score),[18],1.97
same,glycan array binding signal (z-score),[19],1.34
same,glycan array binding signal (z-score),[20],2.85
same,glycan array binding signal (z-score),[21],-0.331
same,glycan array binding signal (z-score),[22],-0.204
same,glycan array binding signal (z-score),[23],0.425
same,glycan array binding signal (z-score),[24],1.94
same,glycan array binding signal (z-score),[25],0.855
same,glycan array binding signal (z-score),[26],-0.583
same,glycan array binding signal (z-score),[27],-0.524
same,glycan array binding signal (z-score),[28],-0.363
same,glycan array binding signal (z-score),[29],-0.573
